Measurements as given in patent US20230123178A1 (Hoffmann-La Roche, published 2023).

Biological target: T1, full-length human PD1 on cells (human, UniProt Q15116 25-288)
T1 construct: also PD1 on primary human PBMC subsets and on Jurkat reporter cells; also called CHO-PD1; CHO-k1-huPD1 clone 5
Assay: flow cytometry on fresh human PBMCs, gate CD4+ T cells; PE-conjugated anti-human IgG secondary; geo mean, baseline corrected

T1 sequence (Q15116 25-288 limits assumed): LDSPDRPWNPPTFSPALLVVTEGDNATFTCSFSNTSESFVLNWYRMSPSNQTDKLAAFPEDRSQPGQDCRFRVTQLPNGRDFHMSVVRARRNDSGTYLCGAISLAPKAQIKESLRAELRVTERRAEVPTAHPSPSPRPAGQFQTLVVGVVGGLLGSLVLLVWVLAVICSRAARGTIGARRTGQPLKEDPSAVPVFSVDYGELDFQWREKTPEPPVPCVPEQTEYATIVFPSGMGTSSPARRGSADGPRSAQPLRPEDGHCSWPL

| Binder | binding result |
| --- | --- |
| monovalent DP47 untargeted split trimeric human 4-1BB ligand (71-248) Fc (kih) fusion with CH-CL cross and with charged residues (control D) (Fc fusion) chain 1: REGPELSPDDPAGLLDLRQGMFAQLVAQNVLLIDGPLSWYSDPGLAGVSLTGGLSYKEDTKELVVAKAGVYYVFFQLELRRVVAGEGSGSVSLALHLQPLRSAAGAAALALTVDLPPASSEARNSAFGFQGRLLHLSAGQRLGVHLHTEARARHAWQLTQGATVLGLFRVTPEIPAGLGGGGSGGGGSREGPELSPDDPAGLLDLRQGMFAQLVAQNVLLIDGPLSWYSDPGLAGVSLTGGLSYKEDTKELVVAKAGVYYVFFQLELRRVVAGEGSGSVSLALHLQPLRSAAGAAALALTVDLPPASSEARNSAFGFQGRLLHLSAGQRLGVHLHTEARARHAWQLTQGATVLGLFRVTPEIPAGLGGGGSGGGGSRTVAAPSVFIFPPSDRKLKSGTASVVCLLNNFYPREAKVQWKVDNALQSGNSQESVTEQDSKDSTYSLSSTLTLSKADYEKHKVYACEVTHQGLSSPVTKSFNRGE[human IgG1 Fc with changes not given here] chain 2: REGPELSPDDPAGLLDLRQGMFAQLVAQNVLLIDGPLSWYSDPGLAGVSLTGGLSYKEDTKELVVAKAGVYYVFFQLELRRVVAGEGSGSVSLALHLQPLRSAAGAAALALTVDLPPASSEARNSAFGFQGRLLHLSAGQRLGVHLHTEARARHAWQLTQGATVLGLFRVTPEIPAGLGGGGSGGGGSASTKGPSVFPLAPSSKSTSGGTAALGCLVEDYFPEPVTVSWNSGALTSGVHTFPAVLQSSGLYSLSSVVTVPSSSLGTQTYICNVNHKPSNTKVDEKVEPKSC heavy: [about 100 residues not given here]GSGFDYWGQGTLVTVSSASTKGPSVFPLAPSSKSTSGGTAALGCLVKDYFPEPVTVSWNSGALTSGVHTFPAVLQSSGLYSLSSVVTVPSSSLGTQTYICNVNHKPSNTKVDKKVEPKSCDKTHTCPPCPAPEAAGGPSVFLFPPKPKDTLMISRTPEVTCVVVDVSHEDPEVKFNWYVDGVEVHNAKTKPREEQYNSTYRVVSVLTVLHQDWLNGKEYKCKVSNKALGAPIEKTISKAKGQPREPQVCTLPPSRDELTKNQVSLSCAVKGFYPSDIAVEWESNGQPENNYKTTPPVLDSDGSFFLVSKLTVDKSRWQQGNVFSCSVMHEALHNHYTQKSLSLSPGK light: [about 100 residues not given here][about 100 residues not given here] | no binding (tested: ~300 nM) |
| DP47 untargeted 4-1BB ligand (71-254) trimer-containing Fc (kih) fusion antigen binding molecule (DP47 split 4-1BBL trimer) Control B (Fc fusion, untargeted variant of Construct 7.1 with a DP47 germline Fab) chain 1: [about 200 residues not given here]GGGGSGGGGSREGPELSPDDPAGLLDLRQGMFAQLVAQNVLLIDGPLSWYSDPGLAGVSLTGGLSYKEDTKELVVAKAGVYYVFFQLELRRVVAGEGSGSVSLALHLQPLRSAAGAAALALTVDLPPASSEARNSAFGFQGRLLHLSAGQRLGVHLHTEARARHAWQLTQGATVLGLFRVTPEIPAGLPSPRSEGGGGSGGGGSRTVAAPSVFIFPPSDRKLKSGTASVVCLLNNFYPREAKVQWKVDNALQSGNSQESVTEQDSKDSTYSLSSTLTLSKADYEKHKVYACEVTHQGLSSPVTKSFNRGE[human IgG1 Fc with changes not given here] chain 2: [about 200 residues not given here][about 120 residues not given here] heavy: [about 100 residues not given here]GSGFDYWGQGTLVTVSSASTKGPSVFPLAPSSKSTSGGTAALGCLVKDYFPEPVTVSWNSGALTSGVHTFPAVLQSSGLYSLSSVVTVPSSSLGTQTYICNVNHKPSNTKVDKKVEPKSCDKTHTCPPCPAPEAAGGPSVFLFPPKPKDTLMISRTPEVTCVVVDVSHEDPEVKFNWYVDGVEVHNAKTKPREEQYNSTYRVVSVLTVLHQDWLNGKEYKCKVSNKALGAPIEKTISKAKGQPREPQVCTLPPSRDELTKNQVSLSCAVKGFYPSDIAVEWESNGQPENNYKTTPPVLDSDGSFFLVSKLTVDKSRWQQGNVFSCSVMHEALHNHYTQKSLSLSPGK light: [about 100 residues not given here][about 100 residues not given here] | no binding (tested: ~300 nM) |
